Consider 85 compounds from PubChem BioAssay (NCI).

Where “and” joins values, the source holds several entries; their conditions need not be identical. Equal values may be shown once.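 Cells were grown in 96-well plates and exposed to each compound for 48 hours at five concentrations; endpoints were interpolated linearly between bracketing concentrations, or set to the highest concentration if not reached. GI50 is the concentration that inhibits growth by half. TGI marks complete inhibition of growth.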

In this assay the test system is NCI-H322M lung. The assay is described as follows: inhibition of tumour cell growth, NCI panel, 48 h.

As for `COc1cc(C2S/C(=C/c3ccccc3)C(=O)N2c2ccc(Cl)c(Cl)c2)cc(OC)c1OC` (stereo unspecified), the TGI was greater than 100 µM.
`O=C(O)CSc1ncccc1[N+](=O)[O-]`: the TGI is greater than 100 µM.
`C=CC[C@@]1(C(=O)OC)[C@H](Sc2ccccc2)C1(C)C` showed a TGI greater than 100 µM.
Still for that read-out and setting: the value for `CCN(CC)CCNc1n[n+]([O-])c2ccccc2[n+]1[O-]` was 54.3 µM.
On the same count and under the same terms, the value for `O=C(NCCCNCCNC(=O)c1cc(-c2ccccc2)nc2ccccc12)c1cc(-c2ccccc2)nc2ccccc12` was 6.07 µM; that for `CC(C)OP(=O)(OC(C)C)C(C(C)C)N(C)/C(F)=N/C(F)(F)F` (stereo unspecified) was greater than 100 µM.
The compound `Clc1ccc(N=c2oc3ccccc3cc2-c2nc3ccccc3[nH]2)c(Cl)c1` gave a TGI greater than 100 µM.
The compound `C#CCn1c(=O)c(C#N)c(O)c2cc3ccccc3nc21` yielded a TGI greater than 31.6 µM.
In the case of `O=[N+]([O-])c1ccc2c(c1)[O][Sn][O]2`, the GI50 was greater than 150 µg/mL and the TGI was greater than 150 µg/mL.
With `C/C(=N\NC(N)=S)c1nc2ccc(Cl)cc2[nH]1`, the GI50 was 1.29 µM and the TGI came to 14.5 µM.
As for `COc1ccc2c(c1)/c(=C/c1ccc(N(C)C)cc1)c1cc(-c3ccccc3)[n+](C)n12`, the GI50 is 0.353 µM; the TGI was 4.43 µM and 1.92 µM.
For the compound `COc1ccc2c(c1)[n+]([O-])c(/C(C)=N/NC(=O)CC#N)c[n+]2[O-]`, the TGI is greater than 100 µM.
The same measure, in the same setting: the value for `Cc1cc(=O)oc2cc(O)c(CN(C)CC(=O)O)cc12` was greater than 100 µM.
With `C[C-](O)O.O/C(=C\[C-](O)c1ccccc1)c1ccccc1.O/C(=C\[C-](O)c1ccccc1)c1ccccc1.[Nd+3]` (stereo unspecified), the GI50 was 11.3 µM and the TGI was 54.4 µM.
In turn, `NNc1nncn1N` gave a TGI greater than 100 µM.
The same measure, in the same setting: for `O=c1[nH]c2cc3[nH]c4ncccc4c(=O)c3cc2[nH]1` the value was greater than 10 µM.
Take `CCC(c1cccc(O)c1)C(CC)c1cccc(O)c1` (stereo unspecified): the GI50 is 4.32 µM and the TGI came to 23.6 µM.
Regarding `C[C@]12CC[C@H](O)CC1=CC[C@@H]1[C@@H]2CC[C@]2(C)/C(=N/OCCN3CCCC3)CC[C@@H]12`, the TGI was 40.7 µM.
On the same count and under the same terms, the value for `COC(=O)[C@@]12CCCC(=O)[C@@H]1[C@H]1CCCC[C@H]12` was greater than 100 µM; that for `O=c1[nH]c(N/N=C\C(O)C(O)C(O)CO)nc2ccccc12` (stereo unspecified) was greater than 100 µM.
For `C=C1C(=O)OC2/C=C(\C=O)CC/C=C(\C)C(O)C[C@@H]12` (stereo partly specified), the TGI was determined as 29.6 µM.
In turn, `CC(=Nc1ccncc1)C(C)=Nc1ccncc1` registered a TGI greater than 100 µM.
For `CCOc1c(Cl)cc(CNC(C)C(O)c2ccccc2)cc1OC` (stereo unspecified), the GI50 was 51.5 µM and the TGI is greater than 100 µM.
Compound `Cc1cc(=O)oc2cc(O)ccc12` registered a TGI greater than 100 µM.
Compound `COc1c2cc(C(C)(C)C)cc1Cc1cccc(c1O)Cc1cc(C(C)(C)C)cc(c1OC)Cc1cccc(c1O)Cc1cc(C(C)(C)C)cc(c1OC)Cc1cccc(c1O)C2` gave a TGI greater than 100 µM.
The compound `C[C@]12CC[C@@H]3c4ccc(OC(=O)c5ccccc5)cc4CC[C@H]3[C@@H]1CC[C@@H]2Oc1c2ccccc2nc2ccccc12` yielded a TGI greater than 50 µM.
Still for that read-out and setting: the value for `COc1cc2c(/C=C3/C(=O)N(c4ccccc4)c4ccccc43)c(Cl)[nH]c2cc1C` was greater than 49.1 µM; that for `S=C(S)NCC1CCC(CNC(=S)S)CC1` (stereo unspecified) was greater than 100 µM; that for `O=C1/C(=C2\Sc3c(ccc(Cl)c3Cl)C2=O)Sc2c1ccc(Cl)c2Cl` was greater than 100 µM.
The same measure, in the same setting: for `Nc1ccc(S(=O)(=O)NCc2nccs2)cc1` the value was 48.1 µM.
On the same count and under the same terms, the value for `Oc1ccc(CCc2cc(O)cc(O)c2)cc1` was greater than 100 µM.
In the case of `Cc1c2ccc(N(C)c3ccnc(Nc4cccc(S(N)(=O)=O)c4)n3)cc2nn1C`, the GI50 is 13.3 µM and the TGI is greater than 25 µM.
Compound `CC(=O)O[C@H]1C(=O)[C@@]2(C)[C@H]([C@H](OC(=O)c3ccccc3)[C@]3(O)C[C@H](OC(=O)[C@H](O)[C@@H](NC(=O)CC(C)(C)C)c4ccccc4)C(C)=C1C3(C)C)C1(OC(C)=O)CO[C@@H]1C[C@@H]2O` (stereo partly specified) returned a TGI greater than 10 µM.
Turning to `COc1ccc(Cn2c(Cl)c(/C=C3/C(=O)Nc4ccccc43)c3cc(OC)c(C)cc32)cc1`, the GI50 is 8.74 µM and the TGI is greater than 100 µM.
On to `Cn1c(=O)c2c(ncn2CN2CCN(Cn3cnc4c3c(=O)n(C)c(=O)n4C)CC2)n(C)c1=O`, for which the TGI was greater than 100 µM.
In the case of `CN(C)CCNc1ncnc2nc(-c3ccc4ccccc4c3)[nH]c12`, the TGI was greater than 100 µM.
As for `COC(=O)CCCCCN=Cc1c(O)c(O)c(C(C)C)c2cc(C)c(-c3c(C)cc4c(C(C)C)c(O)c(O)c(C=NCCCCCC(=O)OC)c4c3O)c(O)c12`, the GI50 is 2.02 µM and the TGI was greater than 32.5 µM.
Regarding `CSc1ccc(/C=C2\C=C(CC(=O)NCc3ccc(C(=O)c4ccccc4)cc3)c3cc(F)ccc32)cc1`, the GI50 is 1.72 µM and the TGI is greater than 100 µM.
For `O=Cc1ccc(-c2cccs2)s1`, the TGI is greater than 100 µM.
For the compound `NC(=O)c1ccc(C2C3=C(CCCC3=O)OC3=C2C(=O)c2ccccc2C3=O)cc1` (stereo unspecified), the GI50 is 2.07 µM and the TGI amounted to 5.05 µM.
The like results for `FCc1ncc(-c2ccc(C(F)(F)F)cc2)c(NC2CCCCCC2)n1` were, in that order, greater than 10 µM and greater than 10 µM.
As for `O=C(NCc1ccc(Cl)cc1)c1cc2sccc2nc1C(F)(F)F`, the TGI was greater than 100 µM.
Consider `CCOC(=O)C(/C=N\C(=S)Nc1ccc(OCC)cc1)=C(/O)c1ccccc1`, for which the TGI is greater than 100 µM.
On the same count and under the same terms, the value for `CN=C1SC(=Nc2ccc(N(C)C)cc2)N1C` was greater than 100 µM; that for `CC(=O)OCC=C(CCl)CCC(Br)C(C)(C)Br` (mixture of isomers) was greater than 10 µM.
Still for that read-out and setting: the value for `CC1(Cl)CC2C(CC1Sc1nnnn1-c1ccccc1)C2(C)C` (stereo unspecified) was greater than 100 µM.
For `CCCCCCN(CCCCCC)CC(O)c1ccc2c3c(cccc13)CC2` (stereo unspecified), the GI50 was 7.97 µM and the TGI was found to be 24.2 µM.
Compound `CC(=O)O[C@@H]1C2C(=O)OC(=O)C2C2CCC[C@]23O[C@H]13` (stereo partly specified) displayed a TGI greater than 100 µM.
In turn, `OC12CC/C(=N/OCc3ccccc3)CC1c1ccccc12` (stereo unspecified) gave a TGI greater than 100 µM.
The same measure, in the same setting: for `CC(C)(C)OC[C@H](O)CC#N` the value was greater than 100 µM; for `COC(=O)C1=C(CS(=O)c2ccccc2[N+](=O)[O-])ON(C)C1c1ccccc1` (stereo unspecified), greater than 100 µM.
Compound `[N-]=[N+]=Nc1ccc(CNc2cc(=O)[nH]c(=O)[nH]2)cc1` came in with a TGI greater than 100 µM.
The compound `Cc1nc(C(N)=S)sc1C(=O)C/C(=N/N)C(=O)Nc1cccc(Cl)c1C` returned a TGI greater than 100 µM.
Regarding `O=C1C(Br)=C(c2ccccc2)S(=O)c2ccccc21` (stereo unspecified), the TGI was determined as 30.7 µM.
With `Cn1cc(CNCC2CCN(c3ncc(C(=O)NO)cn3)CC2)c2ccccc21`, the GI50 was 0.0204 µM and the TGI came to 5.03 µM.
As for `CC1(C)C2CCC3(C2)CS(=O)(=O)N2OC231` (stereo unspecified), the TGI was greater than 100 µM.
Same read-out and setting: the value for `CCO/C(O)=C(/C(=N)N1CCCC1)C(=O)Nc1cccc(C(F)(F)F)c1` was greater than 100 µM.
The same measure, in the same setting: for `CC(=O)N1CCN(C23OC4(N5CCN(C(C)=O)CC5)C5C6CC(C7C6C4C72)C53)CC1` (stereo unspecified) the value was greater than 100 µM.
Regarding `O=C1CCC(O)=C1O`, the TGI was greater than 100 µM.
The compound `O=S1(=O)c2ccccc2NC(=S)CC1c1ccccc1` (stereo unspecified) yielded a TGI greater than 100 µM.
On the same count and under the same terms, the value for `C1=CC=C2NCCOCCNC3=CC=CC=CC3=NCCOCCN=C2C=C1` was greater than 100 µM.
On to `CCN(CC)CCCC(C)Nc1c2ccc(C)cc2nc2ccc(OC)cc12` (stereo unspecified), for which the GI50 was 0.284 µM and the TGI came to 2.38 µM.
`CC(=O)Oc1ccc(C2COc3cc(OC(C)=O)c(OC(C)=O)cc3C2)cc1` (stereo unspecified) showed a TGI of 71.6 µM.
Regarding `CC(C)[C@H]1C(=O)N[C@@H](CCCN=C(N)N)C(=O)NCC(=O)N[C@@H](CC(=O)O)C(=O)N[C@H](Cc2ccccc2)C(=O)N1C`, the GI50 is greater than 100 µM and the TGI is greater than 100 µM.
Take `Cc1cc(C)n(CN(Cn2nc(C)cc2C)C2CCCCC2)n1`: the TGI was greater than 100 µM.
The same measure, in the same setting: for `BrC1(Br)C2/C=C\CCCCC21` (stereo unspecified) the value was greater than 100 µM; for `O=C1C2Cc3ccccc3CN2C(=O)N1CCN1CCCC1` (stereo unspecified), greater than 100 µM; for `CCOc1cc(C2CC(c3ccc(NS(=O)(=O)c4cc([N+](=O)[O-])ccc4C)cc3)=NN2)ccc1O` (stereo unspecified), 68.1 µM.
Compound `COc1ccccc1Nc1nc(NNC(=O)Cc2ccccc2)nc(NNC(=O)c2ccncc2)n1` came in with a TGI greater than 10 µM.
The compound `C/C(O)=C/c1nc2ccc([N+](=O)[O-])cc2nc1/C=C(/C)O` registered a TGI greater than 100 µM.
`CC(C)(C)NC(=O)[C@H]1C[C@H]2CCCC[C@H]2CN1C[C@@H](O)[C@H](Cc1ccccc1)NC(=O)[C@H](CC(N)=O)NC(=O)c1ccc2ccccc2n1`: the GI50 was 15.4 µM and the TGI was 32.1 µM.
`COc1cc(/C=C2\CCC(C)C3=C2NC(=S)NC3c2cc(OC)c(OC)c(OC)c2)cc(OC)c1OC` (stereo unspecified): the TGI was greater than 100 µM.
On to `COc1cc(S(C)(=O)=O)ccc1Nc1nc2ccc(-c3ccc(NC(=O)[C@H](C)c4ccc(F)cc4)cc3)cn2n1`, for which the GI50 was greater than 100 µM and the TGI was greater than 100 µM.
The compound `Cc1c2cc[n+](C)cc2c(C)c2c1[nH]c1ccc(O)c(OCC(F)(F)F)c12` displayed a TGI of 12.2 µM.
The same measure, in the same setting: for `O=C(CNc1ccc(Cl)cc1Cl)NC1C=Cc2ccc(S(=O)(=O)Nc3ccc(Cl)cc3Cl)cc2C1=O` (stereo unspecified) the value was greater than 100 µM; for `CCOC(=O)[C@H]1Nc2ccc(OC)cc2C2c3ccccc3CC21` (stereo partly specified), greater than 100 µM.
Take `Cc1ccc(S(=O)(=O)c2c(O)c3ccccc3n(C)c2=O)cc1`: the TGI is greater than 100 µM.
The compound `Cc1ccc(C(=O)/C(C#N)=C/Nc2c(C)n(C)n(-c3ccccc3)c2=O)cc1` gave a TGI greater than 100 µM.
Turning to `COC(=O)CCC1=C(C)/C(=C/c2[nH]c(-c3ccc[nH]3)cc2OC)N=C1C`, the GI50 was 1.37 µM and the TGI came out at 11.6 µM.
`COc1ccc(/C=C2\N=C(c3ccccc3)N(C3Nc4cc5c(cc4S3)NC(N3C(=O)/C(=C/c4ccc(OC)cc4)N=C3c3ccccc3)S5)C2=O)cc1` (stereo unspecified) registered a TGI greater than 100 µM.
The same measure, in the same setting: for `Cn1nc(S(N)(=O)=O)s/c1=N/C(N)=S` the value was greater than 100 µM.
Take `COc1cc(/C=C2/N=C(c3ccccc3)N(C3=NNC4(C(=O)N3)c3ccccc3-c3ccccc34)NC2=O)ccc1O`: the GI50 was 29.6 µg/mL and the TGI turned out to be 55.3 µg/mL.
`Nc1ccc2[nH]c(C(=O)N3CC(CCl)c4c3cc(N)c3ccccc43)cc2c1` (stereo unspecified) returned a TGI of less than 0.01 µM.
On the same count and under the same terms, the value for `CCOC(=O)c1cc(/C=C/C(C)=C/C(=O)OC)n(C)c1C` was greater than 100 µM.
Turning to `CCN(CCNc1ccc(C)c2sc3ccccc3c(=O)c12)CC(C)(C)O`, the GI50 was 15.7 µM and the TGI was found to be 41.9 µM.
